# According to PubChem BioAssay AID493208 (National Center for Advancing Translational Sciences (NCATS), 2011):
# Screen size: about 44,000 compounds; about 340 (0.77%) were called active. About 5% were inconclusive and are not listed. Calls follow the shape of the dose curve; as a rule, active = well fitted inhibition curve with a large enough effect; inconclusive = small, poorly fitted or top-dose-only effect; inactive = flat fitted curve, though single readings scatter. The list shows a part of the results.
# Experiment: Acumen qHTS Assay for Inhibitors of the mTORC1 Signaling Pathway in MEF (Tsc2-/-, p53-/-) Cells: Sytravon;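 also: plate controls were DMSO for no effect and rapamycin for full effect; nearly all actives have a fitted effect of over 50% in size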
# Details: phospho-rpS6 immunofluorescence/PI, 24 h; series mostly up to 38.3 µM; activity change, negative = inhibition: at the top concentration
# Outline: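 Tsc2-/-, p53-/- MEFs (empty-vector stable line) in DMEM + 10% FBS were treated with compounds 24 h at 37 degree Celsius, fixed, and immunostained for phospho-rpS6 (Alexa-488) with propidium iodide counterstain. Laser-scanning cytometry gave % positive cells, normalized against 7.5 nM rapamycin and DMSO.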
row,SMILES,"activity change, negative = inhibition"
1,Cn1c(=O)n(C)c2cc(CNCCc3ccccc3F)ccc21,inactive: -9.18%
2,N#Cc1ccccc1NC(=O)c1cccn(Cc2ccccc2)c1=O,inactive: -14.8%
3,CCOC(=O)c1ccc(NC(=O)c2cccn(Cc3ccccc3F)c2=O)cc1,inactive: 0.326%
4,COc1ccc(Cl)cc1NC(=O)c1sc2nc3c(cc2c1N)N1CCC3CC1,inactive: -1.22%
5,CCC(C(=O)Nc1ccccc1F)N1C(=O)CN=C(c2ccccc2)c2ccccc21 (configuration not stated),inactive: -10.8%
6,CC(C)c1ccc(NC(=O)CN2C(=O)CN=C(c3ccccc3)c3ccccc32)cc1,inactive: 7.26%
7,CCCc1ccc(OCC(=O)Nc2ccc(Cl)cc2C(=O)c2ccccc2)cc1,inactive: 13.8%
8,Cc1cccc(CN2C(=O)CN=C(c3ccccc3)c3cc(Cl)ccc32)c1,inactive: -6.59%
9,COc1ccc(-c2nc(CN3C(=O)CN=C(c4ccccc4Cl)c4cc(Cl)ccc43)c(C)o2)cc1OC,inactive: 0.9%
10,O=C(Cn1cc(C(=O)c2ccccc2)c2ccccc21)Nc1ccc(Br)cc1,inactive: -3.98%
11,Cc1cc(NC(=O)c2cccn(Cc3cccc([N+](=O)[O-])c3)c2=O)no1,inactive: -5.58%
12,CCOc1ccc2nc(NC(=O)c3cccn(Cc4ccccc4C)c3=O)sc2c1,inactive: 0.0858%
13,CCC(=O)N1CC(=O)Nc2ccc(C)cc2C1c1ccc(F)cc1 (configuration not stated),inactive: -18.6%
14,Cn1c(=O)n(C)c2cc(CNCCc3ccccc3)ccc21,inactive: 0%
15,Cc1ccccc1Cn1cccc(C(=O)Nc2cc(Cl)ccc2C#N)c1=O,inactive: -5.44%
16,O=C(Nc1ccc2c(c1)OCO2)c1cccn(Cc2ccc(F)cc2)c1=O,inactive: 0.406%
17,Cc1oc(-c2ccc(Cl)cc2)nc1CN1C(=O)CN=C(c2ccccc2)c2cc(Cl)ccc21,inactive: -0.931%
18,COc1ccc(-c2nn3c(=O)cc(CN4CCN(C(=O)COc5ccc(F)cc5)CC4)nc3s2)cc1,inactive: 1.98%
19,O=C1CN=C(c2ccccc2)c2cc(Cl)ccc2N1Cc1ccc(Cl)cc1,inactive: 1.84%

row,SMILES,"activity change, negative = inhibition"
1,COc1ccccc1-n1c(/C=C/c2ccccc2)nc2ccccc2c1=O,inactive: 10.3%
2,CCc1ccc(OCC(=O)N2CCN(CCc3ccccn3)CC2)cc1,inactive: 0.135%
3,COc1ccc(-c2nc(CN3C(=O)CN=C(c4ccccc4)c4ccccc43)c(C)o2)cc1OC,inactive: 1.87%
4,COc1cc(/C=C/c2nc3ccccc3c(=O)n2-c2ccc(Br)c(C)c2)ccc1O,inactive: 0.314%
5,CCCCc1nc2ccccc2c(=O)n1-c1cccc(OC)c1,inactive: -0.123%
6,O=C(c1ccc2c(c1)N(Cc1ccc(F)cc1Cl)C(=O)c1ccccc1S2)N1CCC2(CC1)OCCO2,inactive: 9.54%
7,Cc1ccc(NC(=O)CN2C(=O)CN=C(c3ccccc3)c3ccccc32)c(C)c1,inactive: 0.894%
8,N#Cc1cc2c(nc1SCC(=O)Nc1cccc(F)c1)C1CCN2CC1,inactive: 4.11%
9,CCOc1ccc(-n2c(/C=C/c3ccccc3)nc3ccccc3c2=O)cc1,inactive: 0%
10,CSc1ccc(C(c2c(O)c3ccccc3oc2=O)c2c(C)n(C)n(-c3ccccc3)c2=O)cc1 (configuration not stated),inactive: 0%
11,CN1CCN(c2csc3ccc(F)cc3c2=O)CC1,inactive: 11.7%
12,O=C(Nc1ccc2c(c1)OCCO2)c1cccn(Cc2cccc([N+](=O)[O-])c2)c1=O,inactive: -0.194%
13,N#Cc1cc([N+](=O)[O-])ccc1NC(=O)c1cccn(Cc2cccc(F)c2)c1=O,inactive: 0.278%
14,COc1ccc(NC(=O)CN2C(=O)C(C)N=C(c3ccccc3F)c3cc(Cl)ccc32)c(OC)c1 (configuration not stated),inactive: 0.498%
15,Cc1cc(C)cc(-n2c(/C=C/c3cccc(F)c3)nc3ccccc3c2=O)c1,inactive: 15.7%
16,Cc1ccc(NC(=O)N(Cc2ccc3c(c2)OCO3)C2CCN(Cc3ccccc3)CC2)cc1F,inactive: 0%
17,COc1ccc(OC)c(NC(=O)Cn2cc(C(=O)c3ccccc3F)c3ccccc32)c1,inactive: -1.49%
18,Cc1nnc(NC(=O)c2cccn(Cc3ccc(Cl)cc3)c2=O)s1,inactive: -1.81%
19,Cc1cc(C)cc(-n2c(=O)[nH]c3ccccc3c2=O)c1,inactive: -22.9%

row,SMILES,"activity change, negative = inhibition"
1,CCCSc1nc2ccccc2c(=O)n1-c1ccccc1OC,inactive: 16%
2,CCC12CN3CC(CC)(CN(C1)C3c1ccccn1)C2=O (configuration not stated),inactive: 1.82%
3,CC(=O)N1CC(=O)Nc2ccc(F)cc2C1c1ccccc1 (configuration not stated),inactive: -5.27%
4,Cc1nnc(NC(=O)c2cccn(Cc3ccccc3F)c2=O)s1,inactive: 2.67%
5,O=C1CC(c2c(F)cccc2Cl)c2c(c3ccccc3oc2=O)O1 (configuration not stated),inactive: 3.34%
6,Cc1c(C(c2ccc(F)cc2)c2c(O)c3ccccc3oc2=O)c(=O)n(-c2ccccc2)n1C (configuration not stated),inactive: -15.4%
7,O=C(COc1ccc(Cl)cc1)Nc1ccc(Cl)cc1C(=O)c1ccccc1,inactive: 2.65%
8,Cc1oc(-c2ccc(Cl)cc2)nc1CN1C(=O)CN=C(c2ccccc2)c2ccccc21,inactive: -6.01%
9,O=c1[nH]c2ccccc2c(=O)n1-c1ccc(Cl)c(Cl)c1,inactive: 7.98%
10,Cc1cccc(NC(=O)Cn2cc(C(=O)c3ccccc3)c3ccccc32)c1C,inactive: -5.27%
11,O=C(Nc1ccon1)c1cccn(Cc2cccc(Cl)c2)c1=O,inactive: -2.65%
12,O=C1CC(c2ccc(Br)cc2)c2c(c3ccccc3oc2=O)O1 (configuration not stated),inactive: 2.61%
13,Cc1cc(NC(=O)c2cccn(Cc3cccc(Cl)c3)c2=O)no1,inactive: -15.4%
14,Cc1cccc(-n2c(/C=C/c3cn(C)c4ccccc34)nc3ccccc3c2=O)c1,inactive: 18.6%
15,COc1ccc(/C=C/c2nc3ccccc3c(=O)n2-c2ccc(C)cc2)cc1O,inactive: 12.3%
16,O=C(Nc1ccon1)c1cccn(Cc2ccccc2)c1=O,inactive: -2.01%
17,O=c1c2ccccc2nc(/C=C\c2ccc(F)cc2)n1-c1ccccc1F,inactive: 7.93%
18,COc1ccc(OCC(=O)N2CCN(Cc3cc(=O)n4nc(-c5ccccc5C)sc4n3)CC2)cc1,inactive: -20.7%
19,CC(=O)NS(=O)(=O)c1ccc(NC(=O)c2cccn(Cc3ccc(Cl)cc3)c2=O)cc1,inactive: 1.94%
